Residue numbers refer to the chain shown, from its start. The list shows a part of the results.
T1: RBFOX1 RRM (Homo sapiens, UniProt Q9NWB1 109-208)
T1 sequence: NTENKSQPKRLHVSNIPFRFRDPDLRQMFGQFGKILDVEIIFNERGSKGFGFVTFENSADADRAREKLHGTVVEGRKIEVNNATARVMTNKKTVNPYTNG

B1: AGCAAGA (DNA:RNA)
RNA: GGGAGACCGGAAUUCAGAUUGUCCAGCAAGAUUAAAUCCCGUCGUAGCCACCA
DNA 1: CAATCTGAATTCCGGTCTCCC
DNA 2: TGGTGGCTACGACGGGATT
B2: CCUCCGU (DNA:RNA)
RNA: B1 RNA with A25C, G26C, C27U, A28C, A29C, A31U
DNA 1: CAATCTGAATTCCGGTCTCCC
DNA 2: TGGTGGCTACGACGGGATT
B3: ACCAAAU (DNA:RNA)
RNA: B1 RNA with G26C, G30A, A31U
DNA 1: CAATCTGAATTCCGGTCTCCC
DNA 2: TGGTGGCTACGACGGGATT
B4: UGCGUCA (DNA:RNA)
RNA: B1 RNA with A25U, A28G, A29U, G30C
DNA 1: CAATCTGAATTCCGGTCTCCC
DNA 2: TGGTGGCTACGACGGGATT
B5: GAAGGCA (DNA:RNA)
RNA: B1 RNA with A25G, G26A, C27A, A28G, A29G, G30C
DNA 1: CAATCTGAATTCCGGTCTCCC
DNA 2: TGGTGGCTACGACGGGATT
B6: UUUCUGG (DNA:RNA)
RNA: B1 RNA with A25U, G26U, C27U, A28C, A29U, A31G
DNA 1: CAATCTGAATTCCGGTCTCCC
DNA 2: TGGTGGCTACGACGGGATT
B7: AGUCGAG (DNA:RNA)
RNA: B1 RNA with C27U, A28C, A29G, G30A, A31G
DNA 1: CAATCTGAATTCCGGTCTCCC
DNA 2: TGGTGGCTACGACGGGATT
B8: GGUGAUC (DNA:RNA)
RNA: B1 RNA with A25G, C27U, A28G, G30U, A31C
DNA 1: CAATCTGAATTCCGGTCTCCC
DNA 2: TGGTGGCTACGACGGGATT
B9: GGAUCGA (DNA:RNA)
RNA: B1 RNA with A25G, C27A, A28U, A29C
DNA 1: CAATCTGAATTCCGGTCTCCC
DNA 2: TGGTGGCTACGACGGGATT
B10: UCUAGGA (DNA:RNA)
RNA: B1 RNA with A25U, G26C, C27U, A29G
DNA 1: CAATCTGAATTCCGGTCTCCC
DNA 2: TGGTGGCTACGACGGGATT
B11: AGUCACG (DNA:RNA)
RNA: B1 RNA with C27U, A28C, G30C, A31G
DNA 1: CAATCTGAATTCCGGTCTCCC
DNA 2: TGGTGGCTACGACGGGATT
B12: CGUGACA (DNA:RNA)
RNA: B1 RNA with A25C, C27U, A28G, G30C
DNA 1: CAATCTGAATTCCGGTCTCCC
DNA 2: TGGTGGCTACGACGGGATT
B13: UACAGCC (DNA:RNA)
RNA: B1 RNA with A25U, G26A, A29G, G30C, A31C
DNA 1: CAATCTGAATTCCGGTCTCCC
DNA 2: TGGTGGCTACGACGGGATT
B14: GUGUACU (DNA:RNA)
RNA: B1 RNA with A25G, G26U, C27G, A28U, G30C, A31U
DNA 1: CAATCTGAATTCCGGTCTCCC
DNA 2: TGGTGGCTACGACGGGATT
B15: UCACCGA (DNA:RNA)
RNA: B1 RNA with A25U, G26C, C27A, A28C, A29C
DNA 1: CAATCTGAATTCCGGTCTCCC
DNA 2: TGGTGGCTACGACGGGATT
B16: AUUUACA (DNA:RNA)
RNA: B1 RNA with G26U, C27U, A28U, G30C
DNA 1: CAATCTGAATTCCGGTCTCCC
DNA 2: TGGTGGCTACGACGGGATT
B17: AAUGGGA (DNA:RNA)
RNA: B1 RNA with G26A, C27U, A28G, A29G
DNA 1: CAATCTGAATTCCGGTCTCCC
DNA 2: TGGTGGCTACGACGGGATT
B18: UGUCGCC (DNA:RNA)
RNA: B1 RNA with A25U, C27U, A28C, A29G, G30C, A31C
DNA 1: CAATCTGAATTCCGGTCTCCC
DNA 2: TGGTGGCTACGACGGGATT
B19: UGCGAUG (DNA:RNA)
RNA: B1 RNA with A25U, A28G, G30U, A31G
DNA 1: CAATCTGAATTCCGGTCTCCC
DNA 2: TGGTGGCTACGACGGGATT
B20: UUAUUUU (DNA:RNA)
RNA: GGGAGACCGGAAUUCAGAUUGUCCUUAUUUUUUAAAUCCCGUCGUAGCCACCA
DNA 1: CAATCTGAATTCCGGTCTCCC
DNA 2: TGGTGGCTACGACGGGATT
B21: AGAAAGA (DNA:RNA)
RNA: B1 RNA with C27A
DNA 1: CAATCTGAATTCCGGTCTCCC
DNA 2: TGGTGGCTACGACGGGATT
B22: GGUGACU (DNA:RNA)
RNA: B1 RNA with A25G, C27U, A28G, G30C, A31U
DNA 1: CAATCTGAATTCCGGTCTCCC
DNA 2: TGGTGGCTACGACGGGATT
B23: GAUCUAA (DNA:RNA)
RNA: B1 RNA with A25G, G26A, C27U, A28C, A29U, G30A
DNA 1: CAATCTGAATTCCGGTCTCCC
DNA 2: TGGTGGCTACGACGGGATT
B24: CUUAUCG (DNA:RNA)
RNA: B20 RNA with U25C, A27U, U28A, U30C, U31G
DNA 1: CAATCTGAATTCCGGTCTCCC
DNA 2: TGGTGGCTACGACGGGATT
B25: GGACGAC (DNA:RNA)
RNA: B1 RNA with A25G, C27A, A28C, A29G, G30A, A31C
DNA 1: CAATCTGAATTCCGGTCTCCC
DNA 2: TGGTGGCTACGACGGGATT
B26: AACCUCA (DNA:RNA)
RNA: B1 RNA with G26A, A28C, A29U, G30C
DNA 1: CAATCTGAATTCCGGTCTCCC
DNA 2: TGGTGGCTACGACGGGATT
B27: UGAAGUG (DNA:RNA)
RNA: B20 RNA with U26G, U28A, U29G, U31G
DNA 1: CAATCTGAATTCCGGTCTCCC
DNA 2: TGGTGGCTACGACGGGATT
B28: UUACUCU (DNA:RNA)
RNA: B20 RNA with U28C, U30C
DNA 1: CAATCTGAATTCCGGTCTCCC
DNA 2: TGGTGGCTACGACGGGATT
B29: AUUCACU (DNA:RNA)
RNA: B1 RNA with G26U, C27U, A28C, G30C, A31U
DNA 1: CAATCTGAATTCCGGTCTCCC
DNA 2: TGGTGGCTACGACGGGATT
B30: GCUACGU (DNA:RNA)
RNA: B1 RNA with A25G, G26C, C27U, A29C, A31U
DNA 1: CAATCTGAATTCCGGTCTCCC
DNA 2: TGGTGGCTACGACGGGATT
B31: CAAGAGA (DNA:RNA)
RNA: B1 RNA with A25C, G26A, C27A, A28G
DNA 1: CAATCTGAATTCCGGTCTCCC
DNA 2: TGGTGGCTACGACGGGATT

The binders below were run against T1, RBFOX1 RRM (assay: EMSA; HiTS-Eq, 1 nM pool, 10 min; buffer printed only for the single-RNA assays: 10 mM Tris pH 7.5, 150 mM NaCl, 3.4 mM EDTA, 0.001% NP-40, 30 C). Conditions: tags: His6 N-terminal (pET28a); label: 5' 32P.
Procedure, shortened: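 Purified RbFox RRM (wild type or mutant) was equilibrated for 10 min in 50 µL with 1 nM of a 5′-radiolabelled pool of RNA with 7 randomized nucleotides, its flanks annealed to DNA oligonucleotides, across increasing protein concentrations. Free RNA was separated by 8% native PAGE, excised, reverse-transcribed, PCR-barcoded and sequenced on an Illumina HiSeq 2500. Relative association constants came from read-count changes of each variant against the control reaction, normalised to the cognate motif.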

Point of comparison: B6, binding signal 0.0202 KA relative to UGCAUGU. Against it:
- B1 — lower, 0.00998 KA relative to UGCAUGU
- B2 — lower, 0.00636 KA relative to UGCAUGU
- B3 — lower, 0.000529 KA relative to UGCAUGU
- B4 — lower, 0.00986 KA relative to UGCAUGU
- B5 — lower, 0.0178 KA relative to UGCAUGU
- B7 — lower, 0.0129 KA relative to UGCAUGU
- B8 — lower, 0.00751 KA relative to UGCAUGU
- B9 — higher, 0.0242 KA relative to UGCAUGU
- B10 — lower, 0.00501 KA relative to UGCAUGU
- B11 — lower, 0.00913 KA relative to UGCAUGU
- B12 — lower, 0.00489 KA relative to UGCAUGU
- B13 — lower, 0.00315 KA relative to UGCAUGU
- B14 — lower, 0.00866 KA relative to UGCAUGU
- B15 — lower, 0.0066 KA relative to UGCAUGU
- B16 — lower, 0.00199 KA relative to UGCAUGU
- B17 — lower, 0.00526 KA relative to UGCAUGU
- B18 — lower, 0.0149 KA relative to UGCAUGU
- B19 — higher, 0.0369 KA relative to UGCAUGU
- B20 — lower, 0.00884 KA relative to UGCAUGU
- B21 — lower, 0.00545 KA relative to UGCAUGU
- B22 — lower, 0.0137 KA relative to UGCAUGU
- B23 — lower, 0.00941 KA relative to UGCAUGU
- B24 — lower, 0.0057 KA relative to UGCAUGU
- B25 — higher, 0.0241 KA relative to UGCAUGU
- B26 — lower, 0.000268 KA relative to UGCAUGU
- B27 — higher, 0.0247 KA relative to UGCAUGU
- B28 — lower, 0.00661 KA relative to UGCAUGU
- B29 — lower, 0.00101 KA relative to UGCAUGU
- B30 — lower, 0.0152 KA relative to UGCAUGU
- B31 — lower, 0.00424 KA relative to UGCAUGU

— article PMC9911399, “Two distinct binding modes provide the RNA-binding protein RbFox with extraordinary sequence specificity”
